# In PubChem BioAssay AID330 (DTP/NCI, 2004):
# Toxic doses and inconclusive results are not listed. For part of its entries the source gives two or more results. The other results are left out here. An entry can have further records. Values given together differ, and nothing given here explains why; they may come from other doses, times, organisms or constructs than stated.
# Tested on: P388 leukemia ip, CD2F1 mice, survival T/C
# Assay: NCI In Vivo Anticancer Drug Screen. Data for tumor model P388 Leukemia (intraperitoneal) in CD2F1 (CDF1) mice
# Conditions: endpoint: median survival time, higher = longer survival
smiles,measurement,setting,value
Nc1nc(N)nc(Nc2ccc(-c3cc4ccc(-c5ncc[nH]5)cc4[nH]3)cc2)n1,T/C,"dose: 60.0 mg/kg/injection, schedule: Q01DX005 (ip), vehicle: Klucel (hydroxypropylcellulose) (HPC)",122 % of control and 161 % of control
O=C1c2ccccc2C(=O)c2c(NCCNCCO)ccc(O)c21,T/C,"dose: 6.25 mg/kg/injection, schedule: Q04DX002 (ip), vehicle: water","110 % of control, 116 % of control, 164 % of control"
same,T/C,"dose: 12.5 mg/kg/injection, schedule: Q04DX002 (ip), vehicle: water",112 % of control and 179 % of control
CN1CCN(c2ccc3nc(-c4ccc5nc(-c6ccc(O)cc6)[nH]c5c4)[nH]c3c2)CC1,T/C,"dose: 175.0 mg/kg/injection, schedule: Q01DX009 (ip), vehicle: saline",101 % of control and 171 % of control
COc1cccc2c1C(=O)c1c(O)c3c(c(O)c1C2=O)C[C@@](O)(/C(C)=N/NC(=O)c1cccc([N+](=O)[O-])c1)C[C@@H]3OC1CC(N)C(O)C(C)O1 (stereo partly specified),T/C,"dose: 12.5 mg/kg/injection, schedule: Q04DX003 (ip), vehicle: water",114 % of control and 168 % of control
CCOC(=O)NOP(=O)(N1CC1)N1CC1,T/C,"dose: 50.0 mg/kg/injection, schedule: Q01DX001 (ip), vehicle: saline + alcohol",109 % of control and 185 % of control
